Experimental data from PubChem BioAssay (NCI).
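Growth conditions: 96-well plates. Treatment: test compound, 48 hours, 5 concentrations. Analysis: linear interpolation between bracketing concentrations; unreached endpoints set to highest concentration. Abbreviation: GI50, concentration required for 50% inhibition of growth. TGI: total growth inhibition.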

tested on: NCI-H322M lung; assay: NCI-60 cell line screen, 48 h

Which TGI does the source give for `CC(C)C(C)/C=C\C(C)C1CCC2C3=CC=C4CC(O)CCC4(C)C3CCC21C` (centres undefined) here?
Its TGI is greater than 100 µM.

`Cc1ccc(S(=O)(=O)Nc2ccccc2C(=O)c2ccc(C)c(C)c2)cc1` was tested. Which TGI did it give?
The TGI was greater than 100 µM.

How did the TGI turn out when `CC(=O)OC1COC(n2ccc3cc(Br)c([N+](=O)[O-])cc32)C(OC(C)=O)C1OC(C)=O` (centres undefined) was run?
Its TGI is greater than 100 µM.

How did the TGI turn out when `O=c1c2sc(=S)n(-c3ccc(F)cc3)c2ncn1/N=C/c1ccc(F)cc1F` was run?
The TGI was 60 µM.

With `O=C(O)/C=C(/C(=O)O)C12CCN3CC4=CCOC5CC(=O)NC1C5C4CC32` (centres undefined) as the compound, how does the TGI read?
Its TGI is greater than 100 µM.

Which GI50 does the source give for `O=C(CSc1ccc(Cl)cc1)Nc1ccc(-c2nc3ccccc3s2)c(Cl)c1` here?
The GI50 was 3.74 µM.

And the TGI?
Its TGI is 33.2 µM.

`O=C(CC(C(=O)c1ccsc1)c1ccc2c(c1)OCO2)c1ccccc1` (centres undefined) was tested. Which TGI did it give?
Its TGI is greater than 100 µM.

`COc1ncnc(NS(=O)(=O)c2ccc(N=C3C(=O)N(CN4CCN(c5c(F)cc6c(=O)c(C(=O)O)cn(C7CC7)c6c5OC)CC4C)c4ccc(Cl)cc43)cc2)c1OC` (centres undefined) was tested. Which GI50 did it give?
Its GI50 is 26.1 µM.

And the TGI?
The TGI was greater than 50 µM.

For `CC(=O)[C@@]12O[C@@H]1CC1C3CCC4=CC(O)CCC4(C)C3CCC12C` (some centres undefined), which GI50 is on record?
The GI50 was greater than 100 µM.

And the TGI?
The TGI was greater than 100 µM.

`COc1cccc(CCCNC(=O)Cc2cc(OC)c(OC)cc2CO)c1` was tested. Which TGI did it give?
The TGI was greater than 100 µM.

With `O=C(O)CCC(=O)OC1N=C(c2ccccc2Cl)c2cc([N+](=O)[O-])ccc2NC1=O` (centres undefined) as the compound, how does the TGI read?
The TGI was greater than 100 µM.

For `Cc1ccc(C(=C2Sc3ccccc3S2)C(=C2Sc3ccccc3S2)c2ccc(C)s2)s1`, which TGI is on record?
The TGI was greater than 100 µM.

For `Cc1cccc2c1CC1(C2)Cc2c(C)cccc2C1=O` (centres undefined), which TGI is on record?
The TGI was 61.6 µM.

With `Cc1ccccc1S(=O)(=O)OC1NS(=O)(=O)c2ccccc21` (centres undefined) as the compound, how does the TGI read?
The TGI was greater than 100 µM.

With `O=[N+]([O-])C(/C=C(\Cl)n1nnc2ccccc21)=C(/Cl)n1nnc2ccccc21` as the compound, how does the TGI read?
Its TGI is greater than 100 µM.

How did the TGI turn out when `CC1=NN(c2cccc(Cl)c2)C2(C1=C/C=C/c1ccccc1)C(Cl)C(=O)N2c1nc2ccccc2s1` (centres undefined) was run?
The TGI was greater than 100 µM.

For `Brc1ccccc1C1SCc2nc3ccccc3n21` (centres undefined), which TGI is on record?
The TGI was greater than 100 µM.

With `Nc1ncnc2c1nnn2C1OC(CO)C(O)C1O` (centres undefined) as the compound, how does the TGI read?
Its TGI is 22 µM.

For `CN(C)c1ccc(/C=C(\NC(=O)c2ccccc2)c2nc3ncncc3[nH]2)cc1`, which TGI is on record?
Its TGI is greater than 100 µM.

With `COc1ccc(-c2nnc(COc3ccc(C(=O)/C=C/c4ccco4)cc3)o2)cc1` as the compound, how does the GI50 read?
Its GI50 is 5.64 µM.

And the TGI?
Its TGI is 17.9 µM.

For `COc1cc2c3c(n(C)c(=O)c2cc1OC)-c1cc2c(cc1/C3=C\CCN)OCO2`, which GI50 is on record?
The GI50 was 0.498 µM.

And the TGI?
The TGI was 4.03 µM.

Which GI50 does the source give for `COc1ccc(-c2nnc(COc3ccc(NC(=O)Nc4cc(C(F)(F)F)cc(C(F)(F)F)c4)cc3F)o2)cc1` here?
The GI50 was 2.39 µM.

What about the TGI of the same compound?
Its TGI is 9.98 µM.

With `CCOC(=O)c1c(C)nc2c3ccccc3c(C#N)c(C)n12` as the compound, how does the TGI read?
Its TGI is greater than 100 µM.

How did the TGI turn out when `CC1CCC(C(=O)O)(C(Br)C(=O)O)CC1` (centres undefined) was run?
Its TGI is greater than 100 µM.

How did the TGI turn out when `O=C1c2ccccc2-c2c1c(-c1ccc(F)cc1)nc1ccc3ccccc3c21` was run?
The TGI was greater than 100 µM.

How did the TGI turn out when `CCN(CC)CCN(C(=Nc1ccccc1)N1CCOCC1)c1ccccc1` was run?
Its TGI is greater than 100 µM.

`Cc1ccc(NC(=O)c2cc3cc(N=Nc4ccccc4C(=O)O)ccc3oc2=O)cc1` was tested. Which TGI did it give?
The TGI was greater than 100 µM.

Which TGI does the source give for `COc1cccc2c1OC1(C=C2)Oc2ccccc2C(=O)N1C` (centres undefined) here?
The TGI was greater than 100 µM.

Which TGI does the source give for `OCCc1ccsc1-c1sc(-c2cc(CCO)c(-c3sccc3CCO)s2)cc1CCO` here?
Its TGI is 23.5 µM.

With `O=c1[nH]c(=O)n(C2OC(CO)C(O)C2O)c2nc(-c3ccc(-c4ccccc4)cc3)cnc12` (centres undefined) as the compound, how does the TGI read?
The TGI was greater than 100 µM.

`Cc1nc(N)c(N2CCN([N+](=O)[O-])CC2)c(=O)[nH]1` was tested. Which TGI did it give?
The TGI was greater than 100 µM.

`CCOC(=O)C1=C(C)C2C=C(c3cccs3)CC(c3ccc(Cl)cc3)=C2OC1=O` (centres undefined) was tested. Which TGI did it give?
Its TGI is greater than 100 µM.

With `Cc1cc2c3c(nc4ccccc42)C(=O)c2ccccc2-c3n1` as the compound, how does the TGI read?
The TGI was 17.2 µM.

`CCOC(=O)NC(=O)c1cn(CCCO)c(=O)[nH]c1=O` was tested. Which TGI did it give?
Its TGI is greater than 100 µM.

For `C[Si](C)(C)C1(Sc2ccccc2)SCCCS1`, which TGI is on record?
Its TGI is greater than 100 µM.

With `COc1cc(C2c3cc4c(cc3OC(C)(O)C2C)OCO4)cc(OC)c1OC` (centres undefined) as the compound, how does the TGI read?
Its TGI is greater than 100 µM.

For `NS(=O)(=O)c1cc2c(cc1Cl)NC(CCC(=O)O)=NS2(=O)=O`, which TGI is on record?
Its TGI is greater than 100 µM.

How did the TGI turn out when `N=C(N)SCc1ccc2c(c1)Sc1ccccc1O2` was run?
The TGI was 14.1 µM.

With `C=C(Br)C(C)(Br)CCC(Br)C(C)(C)Cl` (centres undefined) as the compound, how does the TGI read?
Its TGI is 34.4 µM.

With `N=Nc1c(OC(=O)Nc2cccc(Cl)c2)[nH]c2ccccc12` as the compound, how does the TGI read?
Its TGI is 23.3 µM.

For `O=[N+]([O-])c1ccc(Oc2c(Cl)cc(S(=O)(=O)/N=C(\NO)Nc3ccc(Cl)cc3)cc2Cl)cc1`, which TGI is on record?
Its TGI is 22.5 µM.

With `ClCc1cccc(Cn2cnc3ncnc(Cl)c32)c1` as the compound, how does the GI50 read?
The GI50 was 2.02 µM.

What about the TGI of the same compound?
Its TGI is 3.46 µM.
